This note sets out measurements from PubChem BioAssay AID1963576 (National Center for Advancing Translational Sciences (NCATS), 2024).

Among all 46,000 compounds or so, about 60 (0.1%) were called active. Roughly 3% stayed inconclusive and do not appear here. Calls come from the whole dose curve; as a rule, active = well fitted inhibition curve with a large enough effect; inconclusive = small, poorly fitted or top-dose-only effect; inactive = no such curve, though single readings can be large or run the other way. Some of the results follow.

A short description of this test: Primary qHTS assay for Inhibitors of ovarian cancer metastasis using an organotypic tumor microenvironment (TME) model.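 For activity change, negative = inhibition: plate controls were DMSO wells for no effect and tomatine positive control wells for full effect.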 Note: nearly all actives have a fitted effect of over 65% in size. As to conditions: SKOV3ip1-GFP adhesion/invasion on 3D omental model, fluorescence; series mostly up to 45.8 µM; activity change, negative = inhibition: at the top concentration. The gist of the method: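 qHTS, 4-pt dose (0.36-46 umol/L); SKOV3ip1-GFP, 1,200 cells/well, no FBS; primary omental fibroblast/mesothelial co-culture 48 h pre-grown; 2 h RT + 16 h 37 C; PBS wash, 4% PFA; GFP count 488/509 nm.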
With `COc1ccc(NC(=O)CCn2cccn2)cc1OC`, the “activity change, negative = inhibition” value was inactive: -14.8%.
Still for that read-out and setting: then `Cc1cccc(C(=O)Nc2ccccc2SCc2cc(=O)c3cccc(C)c3[nH]2)c1`, with inactive: 2.44%; and `CCOCCc1nn2c(=O)cc(COC(=O)C(CC)c3ccccc3)nc2s1` (stereo not drawn), with inactive: 4.67%.
Same read-out and setting: then `Cc1ccc(N(C)C(=O)C2CCCN(c3ncnc4c3nc3n4CCCCC3)C2)cc1C` (stereo not drawn), with inactive: 5.37%.
Regarding `Cc1ccc2occ(-c3cc(-c4ccc(Cl)cc4)nc4c3COc3ccccc3-4)c(=O)c2c1`, the outcome was inactive.
As for `CCCCc1nn2c(=O)cc(COC(=O)c3ccc(NC(=O)C4CCCCC4)cc3)nc2s1`, the compound was classed as inactive.
Consider `Cc1ccc(Cn2c(=O)n(Cc3ccccc3Cl)c(=O)c3ccccc32)cc1`, for which the “activity change, negative = inhibition” value is inactive: -3.91%.
Still for that read-out and setting: then `CCCn1cc(S(=O)(=O)c2ccc(CC)cc2)c(=O)c2ccccc21`, with inactive: -4.43%.
For `CCOc1ccc(NC(=O)Cn2c(=O)n(CCC(=O)NCCc3ccccc3)c(=O)c3ccccc32)cc1`, the result was inactive.
The same measure, in the same setting: the value for `CCOc1ccc(NC(=O)CC2C(=O)N(c3cccc(C)c3)C(=O)N2Cc2cccnc2)cc1` (stereo not drawn) was “inactive”.
Take `O=C(NC1CCNCC1)c1[nH]ncc1NC(=O)c1c(Cl)cccc1Cl`: the “activity change, negative = inhibition” value was inactive: 19.2%.
The same measure, in the same setting: then `Cc1ccc(-c2nc3cc(Cl)ccc3o2)cc1NC(=O)COc1ccc(F)cc1`, with inactive: -6.51%; and `COc1cccc(C2CC(=O)Nc3c2c(=O)nc2c(C)cccn32)c1OC` (stereo not drawn), with inactive: 2.95%; and `Cc1ccc(C(c2sc3nc(-c4ccco4)nn3c2O)N2CCN(Cc3ccccc3)CC2)cc1` (stereo not drawn), with inactive: -14%.
Still for that read-out and setting: then `COc1ccccc1CNC(=O)c1cnn2c(C)c(Cc3ccc(F)cc3)c(C)nc12`, with inactive: -17.1%; and `Cc1cccc(N2CCN(C3(c4ccccc4)C(=O)c4ccccc4C3=O)CC2C)c1` (stereo not drawn), with inactive: 9.21%.
In the case of `CC1=C(C(=O)OC2CCCC2)C(c2ccccc2Cl)CC(=O)N1` (stereo not drawn), the call was inactive.
As to `COc1ccc2c(c1OC)C(=O)OC2[C@H]1c2c(cc3c(c2OC)OCO3)CCN1C` (stereo partly drawn), the “activity change, negative = inhibition” value is inactive: 35.4%.
Turning to `CCOC(=O)c1ccc(NC(=O)CN2C(=O)COc3ccc(Cl)cc32)cc1`, the “activity change, negative = inhibition” value was inactive: -6.01%.
Same read-out and setting: then `COc1ccc(N2CCN(C(=O)c3oc4ccccc4c3NC(=O)c3ccccc3OC)CC2)cc1`, with inactive: -11%.
On the same count and under the same terms, then `COc1ccc(-c2nc3sc(CCNC(=O)C(=O)Nc4c(C)cccc4C)c(C)n3n2)cc1`, with inactive: -2.92%; and `CC1CCCN(CCCNC(=O)CN2C(=O)CSc3ccc(S(=O)(=O)N4CCOCC4)cc32)C1` (stereo not drawn), with inactive: 2.47%; and `CC(C)(C)OC(=O)N1CCC(c2c(C(=O)NC3CCCCC3)cnn2-c2cccc(Cl)c2)CC1`, with inactive: -4.22%.
The same measure, in the same setting: then `Cc1ccc(Cl)cc1N1CCN(C(=O)C2CCN(Cc3nc(-c4ccc(Cl)cc4)oc3C)CC2)CC1`, with inactive: -1.88%.
Take `Cn1nccc1C(=O)NCc1ccc2c(c1)CCN2C(=O)c1ccccc1`: the outcome was inactive.
For `CCOc1ccccc1NC(=O)Cn1nnc(C(=O)Nc2ccc(C)c(C)c2)c1N`, the compound was classed as inactive.
`Cc1c(C(=O)N2CCC(C)CC2)c(S(=O)(=O)N2CCN(c3ccc(Cl)cc3)CC2)c(C)n1C`: the “activity change, negative = inhibition” value was inactive: -1.28%.
Take `Cc1ccc(Cl)cc1N1CCN(S(=O)(=O)c2cc3[nH]c(=O)c(=O)[nH]c3cc2C)CC1`: the compound was classed as inactive.
`O=C(Cn1c(=O)oc2cc(S(=O)(=O)NC3CCCC3)ccc21)Nc1ccc(F)c(F)c1`: the “activity change, negative = inhibition” value was inactive: 4.47%.
As to `COc1ccc(NC(=O)C2CCCN2S(=O)(=O)c2ccc3nc(-c4ccccc4)[nH]c3c2)cc1` (stereo not drawn), the result was inactive.
On to `CN1C(=O)Cc2cc(S(=O)(=O)NCCc3ccccc3)ccc21`, for which the “activity change, negative = inhibition” value was inactive: 7.12%.
The same measure, in the same setting: the value for `Cc1cccc(-c2nc(SCC(=O)Nc3ccc4c(c3)OCO4)c(-c3ccccc3)[nH]2)c1` was inactive: -15.2%; that for `O=C(CCn1c(=O)c2cccn2c2cccnc21)N1CCN(c2cccc(Cl)c2)CC1` was inactive: 0.568%; that for `CCc1ccc(OCC(=O)N(Cc2ccc(OC)cc2)C2CCS(=O)(=O)C2)cc1` (stereo not drawn) was inactive: -0.943%.
On to `COc1ccc(CCNC(=O)c2ccc3c(c2)N(Cc2ccc(Cl)cc2)CCS3)c(OC)c1`, for which the result was inactive.
Still for that read-out and setting: then `CCCCCN1C(C(=O)c2ccccc2)=C(NC(=O)c2ccccc2Cl)c2ccccc2S1(=O)=O`, with “inactive”.
On to `CCOC(=O)c1cc(-c2ccc(C)cc2)n(CCC(=O)Nc2ccc(OC)c(OC)c2)c1C`, for which the “activity change, negative = inhibition” value is inactive: 0.395%.
With `COCCCNC(=O)Cn1cnc2sc(C)c(S(=O)(=O)N3CCN(c4ccccc4OC)CC3)c2c1=O`, the “activity change, negative = inhibition” value is inactive: -3.98%.
On the same count and under the same terms, the value for `CCN1CCN(C(=O)c2ccc3c(c2)N(Cc2cccc(F)c2)C(=O)c2ccccc2S3)CC1` was inactive: -6.29%; that for `CCn1c2ccccc2c2cc(NC(=O)COc3ccc(C)c(C)c3)ccc21` was inactive: -8.87%; that for `CCOC(=O)c1ccc(NC(=O)CC2NCCNC2=O)cc1` (stereo not drawn) was inactive: 4.34%.
In the case of `Cc1ccc2nc3c(cc(C(=O)NC4CCCCC4)c(=N)n3C(C)C)c(=O)n2c1`, the “activity change, negative = inhibition” value is inactive: -5.45%.
With `CCC(C)NC(=O)C1CCC(CNS(=O)(=O)c2ccc(Cl)cc2)CC1` (stereo not drawn), the “activity change, negative = inhibition” value is inactive: -9.55%.
On the same count and under the same terms, then `Cc1ccc(-c2ccc(=O)n(CC(=O)NCc3ccc(F)cc3)n2)cc1`, with inactive: -2.82%.
On the same count and under the same terms, then `CC(=O)NC(C)c1ccc(Oc2ccc(OC(C)C)cc2)cc1` (stereo not drawn), with inactive: -9.24%; and `COc1ccc(-c2nc3n(n2)C(=O)CC(c2ccc(Cl)cc2)S3)cc1` (stereo not drawn), with inactive: 8.25%.
As for `Cc1cc(C)c(S(=O)(=O)n2cnc(C)c2)c(C)c1`, the compound was classed as inactive.
In the case of `CC(=O)c1ccc(N2CCN(S(=O)(=O)c3ccc(-c4cc(C)no4)s3)CC2)cc1`, the “activity change, negative = inhibition” value was inactive: -0.113%.
Same read-out and setting: then `COC(=O)c1c(NC(=O)COc2cc(C)ccc2C(C)C)sc2c1CCC(C)C2` (stereo not drawn), with inactive: 0.418%.
As for `CCS(=O)(=O)CCSc1nc(-c2ccc(Br)cc2)cc(-c2ccccc2)c1C#N`, the compound was classed as inactive.
With `Cc1cccc(NC(=O)CCn2nc(-c3ccccc3)c3ccccc3c2=O)c1`, the “activity change, negative = inhibition” value is inactive: -11.6%.
On the same count and under the same terms, then `CCOc1cc(C(=O)Nc2ccc(-c3nc4ncccc4o3)cc2C)cc(OCC)c1OCC`, with inactive: -5.31%.
In the case of `N#Cc1cccc(NC(=O)C2CCN(c3ncccn3)CC2)c1`, the outcome was inactive.
Turning to `CC1=C(C(=O)Nc2ccccc2C)C(c2cccnc2)n2nc(SCc3ccccc3F)nc2N1` (stereo not drawn), the “activity change, negative = inhibition” value is inactive: -9.95%.
Still for that read-out and setting: then `COC(=O)c1ccc(NC(=O)C2CCN(C(=O)c3ccc(F)cc3)CC2)cc1`, with inactive: 6.47%.
Turning to `COc1ccccc1CNC(=O)CCCCn1c(=O)c2ccccc2n(CC(=O)Nc2cc(Cl)ccc2C)c1=O`, the compound was called inactive.
On to `O=C(O)CCc1ccc(-c2ccccc2)n1CC(=O)Nc1ccccc1C(F)(F)F`, for which the “activity change, negative = inhibition” value was inactive: -5.24%.
The same measure, in the same setting: the value for `Cc1ccccc1Nc1nn2c(=O)c3ccc(C(=O)N4CCCC(C)C4)cc3nc2s1` (stereo not drawn) was inactive: -2.84%.
Regarding `COc1ccc2c(c1)c1c(c(=O)n(-c3ccccc3C)c(=O)n1CC(=O)Nc1c(C)cccc1C)n2C`, the compound was called inactive.
On to `COc1ccc(-c2cnc(C)o2)cc1S(=O)(=O)Nc1ccc(C)c(N(C)C)c1`, for which the result was inactive.
As to `CCOc1ccc(CNS(=O)(=O)c2cc(-c3cc(C)no3)ccc2C)cc1OC`, the “activity change, negative = inhibition” value was inactive: 0.496%.
The same measure, in the same setting: then `O=C1CC(c2ccc(Cl)cc2)Sc2nc(-c3ccc(F)cc3)nn21` (stereo not drawn), with inactive: 6.41%.
On the same count and under the same terms, the value for `O=C(CCc1ccccc1)NC1CC(=O)N(c2ccccc2)C1` (stereo not drawn) was inactive: -3.27%; that for `COc1cccc(OC)c1C(=O)Nc1ccc2c(c1)N(C(C)=O)CCC2` was inactive: -8.56%.
As for `COc1ccc(NC(=O)Cn2c(SCc3ccc(C)cc3)nc3cccnc32)c(OC)c1`, the call was inactive.
`Cc1ccc(NC(=O)CCC(=O)N2Cc3ccccc3Oc3ncccc32)cc1`: the “activity change, negative = inhibition” value was inactive: -18.3%.
On the same count and under the same terms, the value for `CCc1cnc2c(c1SCC(=O)Nc1ccc(C)cc1C)c(=O)n(C)c(=O)n2C` was inactive: 3.95%; that for `CCCn1c(=O)c2sccc2n2c(CCCC(=O)Nc3cccc(CC)c3)nnc12` was inactive: 5.39%.
As for `CCc1ccc(-n2c(=O)c3c4c(sc3n(CC(=O)NC(C)CC)c2=O)CCCC4)cc1` (stereo not drawn), the call was inactive.
In the case of `COCCCNC(=O)CSc1nc(-c2ccccc2)[nH]c1-c1ccc(C)cc1`, the “activity change, negative = inhibition” value was inactive: 2.57%.
Turning to `CCn1c(=O)cc(SCC(=O)NCCc2ccc(OC)cc2OC)c2ccccc21`, the call was inactive.
Regarding `Cn1c(=O)[nH]c2cc(-c3noc(-c4ccc(F)cc4)n3)ccc21`, the “activity change, negative = inhibition” value was inactive: 5.59%.
The same measure, in the same setting: then `COc1cccc(NC(=O)/C(C#N)=C\c2cn(Cc3ccc(Cl)cc3)c3ccccc23)c1`, with inactive: 11.3%.
Same read-out and setting: then `Cc1ccc(Cl)cc1NC(=O)C(=O)NCCc1sc(-c2ccc(F)cc2)nc1C`, with inactive: -0.658%.
For `COc1ccc(NC(=O)CSC2=Nc3ccccc3C3=NC(CC(=O)NCc4ccc(F)cc4)C(=O)N23)cc1` (stereo not drawn), the compound was classed as inactive.
As for `COc1ccc(CC(=O)Nc2sc3c(c2C(=O)Nc2c(C)cccc2C)CCCCC3)cc1`, the “activity change, negative = inhibition” value was inactive: -10.3%.
Take `CCc1ccc(-c2nn(CC(=O)NC3CCCCC3)c3c2cnc2ccc(OC)cc23)cc1`: the compound was classed as inactive.
Same read-out and setting: the value for `COc1ccc2c(C)c(CCC(=O)NCCc3ccc(Cl)cc3)c(=O)oc2c1` was “inactive”.
Turning to `CCCCc1ccc(C(=O)N/C(=C\c2ccc(C)cc2)C(=O)NC2CCCCC2)cc1`, the “activity change, negative = inhibition” value was inactive: 4.14%.
The same measure, in the same setting: the value for `CCc1nc2ccc(C(=O)N3CCN(c4ccc(Cl)cc4)CC3)cc2nc1CC` was inactive: -3.85%; that for `Cc1cc(C(F)F)n2nc(C(=O)Nc3ccc(F)c(Cl)c3)nc2n1` was inactive: -20.1%.
On to `Cc1cccc(S(=O)(=O)c2cn(Cc3ccccc3)c3cc(N4CCCCC4C)c(F)cc3c2=O)c1` (stereo not drawn), for which the result was inactive.
As to `COc1ccc(-c2oc3c(CC=C(C)C)c(OC4O[C@H](CO)[C@@H](O)[C@H](O)[C@@H]4O)cc(O)c3c(=O)c2OC2O[C@@H](C)[C@H](O)[C@@H](O)[C@@H]2O)cc1` (stereo partly drawn), the “activity change, negative = inhibition” value is inactive: -5.06%.
As to `CCCOc1ccc(C(=O)Nc2c(C(=O)c3ccc(C)cc3)oc3ccccc23)cc1`, the “activity change, negative = inhibition” value is inactive: -15.6%.
On to `COc1ccc(CNC(=O)Cn2c(=O)oc3cc(S(=O)(=O)N4CCCC4)ccc32)cc1`, for which the “activity change, negative = inhibition” value was inactive: 2.15%.
As to `C[C@H](Cn1cnc2c(N)ncnc21)OCP(=O)(O)O`, the “activity change, negative = inhibition” value is inactive: -14.3%.
On the same count and under the same terms, the value for `O=C(CC1N=C2c3ccccc3N=C(SCc3ccccc3F)N2C1=O)NCc1cccs1` (stereo not drawn) was inactive: 4.51%; that for `Cc1cccc(CNC(=O)c2ccc(Cn3c(=O)c4cccn4c4cccnc43)cc2)c1` was inactive: -0.357%.
`COc1cccc(Nc2nc(-c3ccccc3)c3cc(C)ccc3n2)c1`: the “activity change, negative = inhibition” value is inactive: -11.7%.
The same measure, in the same setting: the value for `Cc1ccc(NC(=O)C(Cc2ccccc2)NS(=O)(=O)c2cccc3nsnc23)c(C)c1` (stereo not drawn) was inactive: -6.66%.
On the same count and under the same terms, the value for `CC1CCCCN1S(=O)(=O)c1ccc2c(c1)oc(=O)n2CC(=O)Nc1ccc(Cl)cc1` (stereo not drawn) was inactive: 5.7%.
Regarding `COc1cc(C2CC(=O)Nc3c2c(=O)nc2c(C)cccn32)cc(OC)c1OC` (stereo not drawn), the “activity change, negative = inhibition” value was inactive: -27.5%.
In the case of `CCCCNc1cc(C(=O)O)cc(S(N)(=O)=O)c1Oc1ccccc1`, the “activity change, negative = inhibition” value was inactive: -3.49%.
